In PubChem BioAssay AID686979 (National Center for Advancing Translational Sciences (NCATS), 2013):
The campaign covered roughly 420,000 compounds. About 50,000 (12%) were called active. Inconclusive means that the source gave no clear call. Such entries were picked first, then a sample of the others. Calls follow the shape of the dose curve; as a rule, active = well fitted inhibition curve with a large enough effect; inconclusive = small, poorly fitted or top-dose-only effect; inactive = flat fitted curve, though single readings scatter. No potency is given beside an inconclusive call; the fits are too rough.

Test: qHTS for Inhibitors of human tyrosyl-DNA phosphodiesterase 1 (TDP1): qHTS in cells in presence of CPT; also: nearly all actives have a fitted effect of over 55% in size
Settings: chicken DT40 Tdp1-/-;hTDP1 cells + 20 nM CPT, ATP luminescence, 48 h; activity change, negative = growth inhibition: at 46.2 µM (top of the series) unless noted
Outline: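 Cell growth measured by CellTiter-Glo luminescence after a minimum 48 h, 37 C compound exposure with 20 nM CPT in Tdp1-knockout DT40 cells stably expressing hTDP1, seeded 400/well; qHTS titration format.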
% is scaled to controls: 0 for no effect and ±100 for the full control effect; potency is read from the fitted curve at half-maximal effect; tags tell the direction and shape of the fitted curve.

| SMILES | activity change, negative = growth inhibition | Potency |
| --- | --- | --- |
| CC1=C(C(=O)N2CCOCC2)CC(CC(=O)NCCN2CCOCC2)C(=O)N1Cc1ccccc1 (configuration not stated) | inactive: 5.07% |  |
| COC1c2ccccc2C(=O)N1CCc1ccc(Cl)cc1 (configuration not stated) | inactive: -22.6% |  |
| CCOc1ccc(C(C(=O)NC2CCCCC2)N(C(=O)Cc2cccs2)c2ccc(-n3cnnn3)c(OC)c2)cc1 (configuration not stated) |  | inconclusive [inhibitor, single point] |
| COc1ccc(OC)c(NC(=O)COC(=O)c2c3c(nc4ccccc24)CCCC3)c1 |  | active: 23.1 µM |
| O=C1Nc2ccccc2C1(O)Cc1ccncc1 (configuration not stated) | inactive: -0.314% |  |
| COc1ccc(NC(=O)c2cccc(S(=O)(=O)N(C)c3ccccc3)c2)cn1 |  | active: 16.4 µM |
| COc1ccc(OC)c(NC(=O)COc2coc(CN3CCc4ccccc43)cc2=O)c1 |  | inconclusive [inhibitor, single point] |
| COc1ccc(Cl)cc1C(=O)NNC(=O)COC(=O)c1ccc(Br)o1 | inconclusive: 1.39% [inhibitor] |  |
| O=C(Nc1ccc(NC(=O)C23CC4CC(CC(C4)C2)C3)cc1)c1cc(F)c(F)cc1Cl |  | inconclusive [inhibitor, full curve] |
| CCOC(=O)c1ccc(NC(=O)Oc2cc(C)c(Cl)cc2C(C)C)cc1 |  | inconclusive [inhibitor, partial curve] |
| COc1ccc([C@H]2/C=C\CN(C(=O)c3ccccc3)[C@@H](C)C(=O)N2Cc2ccc(F)cc2)cc1 |  | inconclusive [inhibitor, single point] |
| COc1cc(C(=O)N2CCc3c([nH]c4ccccc34)C2c2ccccc2)cc(OC)c1OC (configuration not stated) |  | active: 7.31 µM |
| Cc1c(C#N)c2ccccc2n1CC(=O)N1CCCC1 |  | inconclusive [inhibitor, single point] |
| COc1ccc(/C=C2\SC(=O)N(CCNC(=O)C3CC4C=CC3C4)C2=O)cc1 (configuration not stated) | inconclusive: -33.5% [inhibitor] |  |
| CN(C)NC(=S)Nc1cccc(C(F)(F)F)c1 | inactive: 16% |  |
| CCOc1ccc(NC(=O)CCC(=O)c2ccc(-c3ccccc3)cc2)cc1 | inactive: -5.25% |  |
| CC(C)c1ccc(/C=N\NC(=O)c2ccc(Cn3cccn3)o2)cc1 | inactive: -8.59% |  |
| CCOC(=O)c1cn2ccc(C)cc2n1 |  | inconclusive [inhibitor, single point] |
| Cc1cccc(C(=O)Nc2nc(-c3ccc(Br)cc3)ns2)c1 | inactive: -29.2% |  |
| COc1ccccc1/C=C1/C(=O)N(c2ccccc2)N=C1C | inactive: -22.2% |  |
| COc1cccc(C(=O)NNC(=O)Cc2ccc([N+](=O)[O-])cc2)c1 | inactive: 0.44% |  |
| Cc1ccc(C(O)c2ncc(-c3ccccc3Cl)[nH]2)c(C)c1 (configuration not stated) |  | inconclusive [inhibitor, partial curve] |
